Results from the supplement of paper PMC7826260.
This is one part of the list. Cleavage of a single-stranded DNA pool by Rep nickase domains was read by sequencing (1 h at 37 °C, 3 µM enzyme); the outer parts of the 90-letter strands are left off. The score is log2 (uncut reads / reads without enzyme); strong cutting gives strongly negative numbers. There is no active / inactive call. The scaling is to total reads, so uncut sequences can rise above 0 when many others are cut.

Key:
Assay in all cases: uncleaved DNA left, log2 of reads against the no-enzyme library (log2 ratio); higher = less cleavage (more negative = more Rep cleavage of the k-mer); sequences stand for … in CTCGTCCG…ACCGGAGA
[1] = tested on: T1, Rep nickase domain of Muscovy duck circovirus
T1 sequence (protein, residues 1-111, tag omitted): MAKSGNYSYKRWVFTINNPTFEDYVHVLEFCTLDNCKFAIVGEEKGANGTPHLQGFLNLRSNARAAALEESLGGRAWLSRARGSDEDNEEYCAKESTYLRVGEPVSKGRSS
Protocol: (§1)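 A pool of 90-nt single-stranded DNAs with seven random bases just before the constant AC of the nick site (name = the seven bases) was cut by 3 µM recombinant His6-SUMO-tagged Rep nickase domain (300 nM DNA, 50 mM HEPES pH 8.0, 50 mM NaCl, 1 mM MnCl2, 1 h, 37 °C, three replicates). Uncut DNA was amplified and sequenced.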

[2] = tested on: T2, Rep nickase domain of banana bunchy top virus
T2 sequence (protein, residues 1-94, tag omitted): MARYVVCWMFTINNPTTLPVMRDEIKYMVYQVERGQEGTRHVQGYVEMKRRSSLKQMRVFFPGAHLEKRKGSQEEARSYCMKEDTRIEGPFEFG
Protocol: as §1

[3] = tested on: T3, Rep nickase domain of cabbage leaf curl virus
T3 sequence (protein, residues 1-116, tag omitted): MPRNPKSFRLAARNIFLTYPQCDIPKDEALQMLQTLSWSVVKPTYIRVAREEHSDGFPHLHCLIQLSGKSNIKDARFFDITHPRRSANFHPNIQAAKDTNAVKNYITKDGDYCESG
Protocol: as §1

[4] = tested on: T4, Rep nickase domain of chickpea chlorotic dwarf virus
T4 sequence (protein, residues 1-124, tag omitted): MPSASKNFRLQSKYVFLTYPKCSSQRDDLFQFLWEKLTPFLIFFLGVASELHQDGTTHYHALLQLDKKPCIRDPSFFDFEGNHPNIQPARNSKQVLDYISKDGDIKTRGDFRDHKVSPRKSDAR
Protocol: as §1

[5] = tested on: T5, Rep nickase domain of faba bean necrotic yellows virus
T5 sequence (protein, residues 1-98, tag omitted): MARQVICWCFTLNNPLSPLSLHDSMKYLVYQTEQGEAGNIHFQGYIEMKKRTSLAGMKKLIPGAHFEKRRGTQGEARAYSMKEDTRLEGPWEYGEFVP
Protocol: as §1

[6] = tested on: T6, Rep nickase domain of maize striate mosaic virus
T6 sequence (protein, residues 1-117, tag omitted): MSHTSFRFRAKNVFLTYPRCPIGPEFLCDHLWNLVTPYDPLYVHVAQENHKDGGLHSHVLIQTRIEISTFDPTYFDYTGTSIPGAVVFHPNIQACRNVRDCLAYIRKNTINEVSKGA
Protocol: as §1

[7] = tested on: T7, Rep nickase domain of porcine circovirus 2
T7 sequence (protein, residues 2-116, tag omitted): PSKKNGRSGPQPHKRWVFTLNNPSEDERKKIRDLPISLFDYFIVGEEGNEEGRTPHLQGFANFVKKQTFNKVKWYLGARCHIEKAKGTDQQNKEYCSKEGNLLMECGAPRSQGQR
Protocol: as §1

[8] = tested on: T8, Rep nickase domain of tomato golden mosaic virus
T8 sequence (protein, residues 1-124, tag omitted): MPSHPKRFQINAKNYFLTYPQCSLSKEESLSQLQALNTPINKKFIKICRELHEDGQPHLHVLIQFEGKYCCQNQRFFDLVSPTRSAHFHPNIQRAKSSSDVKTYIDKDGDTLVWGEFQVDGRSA
Protocol: as §1

[9] = tested on: T9, Rep nickase domain of tomato yellow leaf curl virus
T9 sequence (protein, residues 1-136, tag omitted): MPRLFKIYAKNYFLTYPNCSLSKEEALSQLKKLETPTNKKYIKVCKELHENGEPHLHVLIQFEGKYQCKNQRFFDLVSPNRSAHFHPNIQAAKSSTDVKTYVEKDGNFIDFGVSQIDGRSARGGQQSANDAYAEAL
Protocol: as §1

[10] = tested on: T10, Rep nickase domain of wheat dwarf virus
T10 sequence (protein, residues 1-137, tag omitted): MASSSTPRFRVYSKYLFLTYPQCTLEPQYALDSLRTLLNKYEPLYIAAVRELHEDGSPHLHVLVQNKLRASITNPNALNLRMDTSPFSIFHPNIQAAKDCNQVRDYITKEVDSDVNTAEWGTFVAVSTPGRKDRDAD
Protocol: as §1

| Sequence | uncleaved DNA left (log2) [1] | uncleaved DNA left (log2) [2] | uncleaved DNA left (log2) [3] | uncleaved DNA left (log2) [4] | uncleaved DNA left (log2) [5] | uncleaved DNA left (log2) [6] | uncleaved DNA left (log2) [7] | uncleaved DNA left (log2) [8] | uncleaved DNA left (log2) [9] | uncleaved DNA left (log2) [10] |
| --- | --- | --- | --- | --- | --- | --- | --- | --- | --- | --- |
| CTGTAAA | 0.0885 | 0.133 | -0.133 | -0.146 | 0.0933 | -0.669 | 0.0832 | 0.00197 | 0.214 | 0.000272 |
| CTCCGGT | 0.0208 | -0.169 | 0.212 | 0.422 | -0.0756 | 1.24 | 0.0521 | 0.0347 | -0.0701 | 0.00624 |
| GTAACAA | -0.0189 | 0.101 | 0.271 | 0.916 | 0.00874 | 1.66 | 0.14 | 0.117 | 0.134 | 0.129 |
| GGCCACA | -0.0102 | 0.0769 | 0.497 | 1.15 | -0.0294 | 1.72 | 0.0943 | 0.044 | 0.0465 | 0.0736 |
| ATTAGCT | -0.0137 | -0.0965 | -0.531 | -1.56 | 0.0507 | -1.12 | -0.76 | -0.0421 | 0.0416 | -0.15 |
| AACTGCA | -0.175 | -0.0869 | -0.644 | -0.926 | -0.0634 | -0.962 | -2.66 | -0.0601 | 0.0583 | -0.0665 |
| AGAAAGC | 0.0452 | -0.00915 | -0.148 | -0.178 | 0.0323 | -0.937 | 0.12 | 0.0911 | 0.0192 | 0.0242 |
| TTGTTCC | -0.151 | -0.169 | 0.0941 | -0.0174 | -0.0839 | 0.0528 | -0.172 | -0.189 | -0.171 | -0.0892 |
| AGGTCTT | -0.651 | 0.0529 | 0.186 | -0.747 | -0.138 | 1.13 | -3.23 | 0.0713 | 0.215 | 0.014 |
| AACTCAT | -0.467 | -0.22 | -0.0919 | -1.94 | 0.0715 | -0.27 | -3.53 | 0.0859 | 0.00314 | 0.064 |
| AAGATTT | 0.0897 | -1.21 | -0.16 | -2.33 | -0.489 | 0.649 | -3.7 | 0.107 | 0.0421 | 0.115 |
| GACTGGC | -0.118 | -0.147 | -0.0612 | 0.278 | -0.0863 | -0.0082 | -0.0238 | -0.103 | -0.101 | -0.0374 |
| AGGAAAC | 0.00384 | -0.013 | 0.153 | 0.546 | 0.062 | 0.215 | -0.0208 | -0.0857 | -0.0797 | 0.0622 |
| AGCATGC | 0.0474 | 0.12 | -0.385 | -0.222 | 0.0541 | -0.834 | 0.228 | -0.0162 | 0.081 | 0.12 |
| CGTTCGG | -0.0269 | -0.0678 | 0.202 | 0.942 | -0.113 | 1.16 | -0.0615 | -0.0474 | -0.104 | -0.101 |
